Laboratory results as given in the supplement of paper PMC3334620.
The full ranking holds about 33,000 sequences; the median of “E-score (-0.5 to 0.5)” is about -0.053, and the highest 2% start at about 0.37. The list shows a part of the results.

What follows are sequences tested against Hap1 (UniProt P0CE41) (assay: PBM E-score (8-mer binding enrichment) (E-score (-0.5 to 0.5)); higher = stronger / more preferred TF binding; most listed sequences are background and not binding sites). Details: protein concentration: 200 nM; construct: GST-DNA-binding domain.
In short: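 Yeast transcription factors carrying a GST tag, as full-length proteins or DNA-binding domains, were produced by PURExpress in vitro transcription/translation. About 100-200 nM protein was applied to universal all-10-mer Agilent arrays, double-stranded by primer extension on fresh or once-stripped slides. Bound protein was detected with fluorescent anti-GST, and scans were normalised with masliner. The Universal PBM Analysis Suite gave each ungapped eight-base word, pooled with its reverse complement, an E-score, a modified Wilcoxon-Mann-Whitney statistic.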

Chain of UniProt P0CE41 (P0CE41 whole entry, the tested form may be a part): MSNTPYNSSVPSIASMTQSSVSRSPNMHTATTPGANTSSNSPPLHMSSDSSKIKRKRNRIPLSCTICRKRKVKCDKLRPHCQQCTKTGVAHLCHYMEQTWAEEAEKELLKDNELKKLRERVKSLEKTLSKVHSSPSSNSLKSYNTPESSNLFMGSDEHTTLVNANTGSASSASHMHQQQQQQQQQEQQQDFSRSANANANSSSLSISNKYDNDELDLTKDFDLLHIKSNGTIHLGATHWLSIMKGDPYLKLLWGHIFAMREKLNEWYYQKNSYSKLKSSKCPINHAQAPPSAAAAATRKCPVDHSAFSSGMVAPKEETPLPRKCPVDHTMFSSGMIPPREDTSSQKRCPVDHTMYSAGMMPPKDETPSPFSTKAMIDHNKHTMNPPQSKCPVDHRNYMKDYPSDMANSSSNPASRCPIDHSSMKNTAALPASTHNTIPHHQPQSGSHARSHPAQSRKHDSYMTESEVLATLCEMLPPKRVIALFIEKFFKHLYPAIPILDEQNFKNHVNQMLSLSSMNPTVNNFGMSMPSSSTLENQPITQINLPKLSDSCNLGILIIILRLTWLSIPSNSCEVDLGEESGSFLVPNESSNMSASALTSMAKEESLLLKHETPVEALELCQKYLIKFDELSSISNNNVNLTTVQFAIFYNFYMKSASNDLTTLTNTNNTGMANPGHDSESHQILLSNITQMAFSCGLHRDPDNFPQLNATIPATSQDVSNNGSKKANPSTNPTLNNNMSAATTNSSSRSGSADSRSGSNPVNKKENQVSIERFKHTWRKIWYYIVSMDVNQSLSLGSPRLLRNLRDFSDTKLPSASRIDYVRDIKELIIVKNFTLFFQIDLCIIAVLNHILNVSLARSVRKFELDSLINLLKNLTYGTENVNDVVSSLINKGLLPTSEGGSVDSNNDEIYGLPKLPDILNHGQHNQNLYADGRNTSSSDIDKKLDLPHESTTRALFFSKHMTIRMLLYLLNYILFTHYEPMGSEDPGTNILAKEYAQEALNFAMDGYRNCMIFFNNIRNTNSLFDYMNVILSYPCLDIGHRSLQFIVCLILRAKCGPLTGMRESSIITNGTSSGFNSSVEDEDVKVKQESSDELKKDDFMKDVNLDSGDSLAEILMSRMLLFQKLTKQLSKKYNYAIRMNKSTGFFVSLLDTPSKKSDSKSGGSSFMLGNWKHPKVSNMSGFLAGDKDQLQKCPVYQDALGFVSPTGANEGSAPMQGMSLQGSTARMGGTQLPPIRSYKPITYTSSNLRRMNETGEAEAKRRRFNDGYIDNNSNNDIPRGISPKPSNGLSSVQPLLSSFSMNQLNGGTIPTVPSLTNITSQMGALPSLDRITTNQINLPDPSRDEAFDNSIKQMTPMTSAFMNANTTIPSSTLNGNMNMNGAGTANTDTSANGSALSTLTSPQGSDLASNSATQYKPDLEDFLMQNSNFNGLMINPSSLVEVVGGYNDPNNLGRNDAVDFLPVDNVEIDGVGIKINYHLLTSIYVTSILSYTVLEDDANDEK

Point of comparison: GTATCCAA, “PBM E-score” value -0.13. Against it:
- GACCCACC — higher, 0.141
- AACGCTCC — higher, -0.0565
- GATACCCA — higher, -0.112
- CAATCTGG — lower, -0.186
- TAGATCAA — lower, -0.149
- CACATTAA — lower, -0.231
- AAAGTGAT — higher, -0.0751
- AAAGCGTA — higher, 0.0231
- GCACGATA — higher, 0.0171
- ACTAAAGC — higher, 0.0709
- ACTCATCC — higher, -0.12
- AAACAGCC — higher, -0.0624
- GCTACGAA — lower, -0.16
- ATGATTGG — higher, -0.0096
- ATTAAGCG — higher, 0.00935
- CCTGGGCA — lower, -0.292
- ACGTCTAT — lower, -0.197
- CGTCCGGA — higher, 0.443
- CACGTATA — higher, -0.0707
- AGCGTTCA — higher, -0.1
- GGCAAACC — higher, 0.0569
- TAACCTCA — lower, -0.18
- GCGGTGAA — higher, 0.0893
- AGCTATGA — lower, -0.226
- AAATCTGA — lower, -0.167
- CATCGGAC — higher, 0.401
- CATACCTC — higher, -0.0827
- GGACTCCA — higher, 0.0548
- AGAAAACG — higher, -0.00956
- CCCCATGA — lower, -0.194
- ACCATCCA — lower, -0.144
- CCATCAAG — lower, -0.314
- CGATATCA — higher, 0.234
- CACCGTCC — higher, 0.143
- AATCGCCG — higher, 0.395
- GCCGGTGA — higher, 0.274
- AGGCCGCA — higher, -0.00433
- ATTATATA — higher, -0.0612
- CCGACACA — higher, 0.154
- TCGCTAAA — higher, -0.0067
- CACTCACA — higher, -0.00696
- AGGTCCAT — higher, 0.0933
- ACTGTTCA — higher, -0.0588
- AGTAACGA — higher, -0.105
- GACACATA — higher, -0.0738
- AGGAACTC — lower, -0.195
- CGCTTGAG — higher, -0.0317
- AAGCGACA — higher, 0.0662
- AAGGTAGT — higher, -0.0661
- AACGCAGC — higher, -0.0288
- AGATAAAA — higher, 0.00207
- AATTTCGT — higher, 0.00164
- ACCTTTGA — lower, -0.253
- ATCCTCAA — higher, -0.0487
- GCAATCGA — higher, -0.119
- CGGGTAAC — higher, 0.217
- ACCAGCGA — higher, -0.00815
- ACGTCATG — higher, -0.128
- ATTACGCG — higher, 0.154
- CAGCCGCA — lower, -0.142
- GAATTCAC — higher, -0.0015
- CACCGGAA — higher, 0.398
- CCATGTGA — lower, -0.274
- AAATTAGA — higher, -0.0179
- TCCAATCA — higher, -0.0424
- CTCGTTGA — lower, -0.293
- ATTGACAG — higher, -0.00397
- GAAAGTCC — higher, 0.285
- GGTACTAC — higher, 0.142
- CTTCGGGC — higher, 0.208
- AGTAGCCC — higher, 0.0495
- CGCAGTTC — higher, 0.0273
- CCACTAAG — higher, 0.0818
- AGTGGCAT — higher, -0.0822
- GCGAAGCA — higher, 0.0421
- AGATTTTA — lower, -0.132
- TATTGGGA — lower, -0.249
- GGAGGACC — higher, 0.149
- CACCGATG — higher, 0.196
- CCCGATTA — higher, 0.197
- AGGACTGC — lower, -0.365
- AGACTCAG — lower, -0.176
- CTGCACAG — lower, -0.161
- GGGAAGAC — higher, -0.0862
- TAGCTAAA — lower, -0.2
- AGGGATGG — higher, 0.00107
- AGTTTTGC — higher, 0.00984
- CGGACTAA — higher, 0.411
- CACACCAG — lower, -0.292
- AATCCCCA — higher, -0.116
- ACGACGCA — higher, -0.00728
- ACGGATCT — higher, 0.268
- GTATTCGA — higher, -0.115
- GTGGGCGA — lower, -0.186
- CCGGAGAC — higher, 0.373
- ACTAGTAT — higher, -0.04
- CAGAGGAC — lower, -0.275
- ATAGAACC — higher, 0.0424
- ACAGACCA — higher, -0.117
- GCGTTGTA — higher, -0.0982
- CCATGAAA — lower, -0.184
- CTAGCCAC — lower, -0.304
- AGCTACGC — higher, -0.0755
- TAAAGAAA — higher, 0.0601
- ACGTTAGG — higher, -0.082
- ACGAACGC — higher, 0.0808
- CGCGGATA — higher, 0.309
- GGTAGTCA — higher, -0.0479
- ATCACCAG — higher, -0.00114
- ACTGAAAA — higher, -0.0403
- CTTCTCTC — higher, -0.0393
- CTTAGCTA — lower, -0.158
- ACGCCTCG — higher, 0.061
- ACAAGGGT — lower, -0.161
- GGAACTCA — higher, 0.0924
- TCATGGAA — higher, -0.0437
- AGTAGCAC — lower, -0.165
- CTGACCGC — higher, 0.211
- AAGGATAG — higher, -0.0396
- TCATAGGA — higher, -0.112
- ACATGGGT — lower, -0.141
- AAGTGGAG — lower, -0.18
- CACGACGA — lower, -0.176
- ATCCGTTC — higher, 0.233
- AATACAAT — higher, -0.0698
- AACGGTGA — higher, 0.185
- CAAAACGA — lower, -0.16
- ATGAGATC — lower, -0.155
- CAAATTAA — lower, -0.167
- GTCTCGTA — higher, -0.0726
- GAGGATCC — higher, 0.176
- ACACATGC — higher, -0.0573
- ATCACCTA — lower, -0.327
- TAAACAGA — lower, -0.164
- CTCAAGCA — lower, -0.346
- AATCATGC — higher, -0.128
- CATTCTGC — higher, 0.0417
- CCTCCAAG — lower, -0.326
- ACTCATCA — higher, -0.0308
- ACCGTTAT — higher, 0.193
- AGGCACCA — higher, -0.0901
- AATCGATA — higher, 0.0253
- AGAGCCCG — higher, 0.125
- GAACACCA — higher, -0.0651
- ATTAACAA — higher, -0.0497
- GAATGACC — higher, 0.221
- ACGCCTAC — higher, -0.0649
- AATAGTTA — higher, -0.0887
- CCTTCCGC — higher, 0.222
- ACCCATCC — higher, 0.0641
- AGCACTTC — higher, -0.0434
- GAGCAATA — lower, -0.174
- AAGTGGGG — higher, -0.0398
- CATTAGTA — higher, 0.0201
- TCGATAGA — higher, -0.0827
- CACATCTC — higher, 0.0239
- TCGTTAAA — higher, 0.0807
- TCATCAAA — higher, -0.079
- CACCTGAG — lower, -0.3
- CGAATATC — higher, 0.0376
- AGGATAAG — higher, -0.0379
- ACAGGAAT — lower, -0.135
- GCGGCTAA — higher, 0.0795
- TGGGTGAA — higher, 0.0419
- GACCAGGA — higher, -0.0417
- CGATCGAC — higher, 0.124
- ATTCAATA — higher, -0.0774
- TTCATCAA — higher, 0.0253
- TATTCTAA — higher, -0.123
- TAGCATGA — lower, -0.153
- TTCGTCAA — higher, -0.123
